Over roughly 110,000 compounds, “z-score” has its median near -0.1; the highest 2% begin near 2. This is one part of the list.
target: Metabotropic glutamate receptor 8 (Rattus norvegicus) (UniProt P70579); test: mGluR8 Gi/Go-coupled signaling modulation – cell-based, rat, thallium flux, HTS, primary screen (AID 488969); conditions: HEK293 rat mGluR8, GIRK (G protein-gated inwardly rectifying potassium channel) thallium flux, FluoZin2; at 10 µM; stronger effect = higher value; submaximal glutamate (EC20) added with thallium
UniProt P70579, sequence (P70579 whole entry, looked up): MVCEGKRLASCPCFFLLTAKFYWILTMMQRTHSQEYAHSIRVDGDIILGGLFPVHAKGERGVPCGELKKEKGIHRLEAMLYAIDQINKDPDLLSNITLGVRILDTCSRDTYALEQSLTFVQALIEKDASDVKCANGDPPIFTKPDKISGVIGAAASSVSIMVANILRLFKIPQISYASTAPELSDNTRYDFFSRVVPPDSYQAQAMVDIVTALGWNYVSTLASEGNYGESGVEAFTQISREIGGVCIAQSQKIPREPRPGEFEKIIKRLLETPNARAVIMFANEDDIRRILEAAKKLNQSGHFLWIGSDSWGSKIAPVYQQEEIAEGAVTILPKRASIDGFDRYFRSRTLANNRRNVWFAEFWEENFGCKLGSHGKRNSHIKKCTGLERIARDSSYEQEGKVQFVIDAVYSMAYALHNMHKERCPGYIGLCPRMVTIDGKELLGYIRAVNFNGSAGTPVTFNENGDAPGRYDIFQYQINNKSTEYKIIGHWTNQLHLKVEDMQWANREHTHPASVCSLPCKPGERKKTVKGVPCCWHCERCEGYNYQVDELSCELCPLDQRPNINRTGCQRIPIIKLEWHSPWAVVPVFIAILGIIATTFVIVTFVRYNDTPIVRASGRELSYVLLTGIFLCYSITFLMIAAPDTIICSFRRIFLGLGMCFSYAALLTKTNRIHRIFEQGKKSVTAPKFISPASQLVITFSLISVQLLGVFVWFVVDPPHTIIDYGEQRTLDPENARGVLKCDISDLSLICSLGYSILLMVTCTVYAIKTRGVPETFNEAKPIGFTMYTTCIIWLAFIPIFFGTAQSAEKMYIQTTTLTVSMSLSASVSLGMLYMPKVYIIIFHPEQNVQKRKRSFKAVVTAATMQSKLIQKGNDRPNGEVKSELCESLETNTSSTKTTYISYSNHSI

SMILES	z-score
COc1cc(=O)[nH]c(=O)n1CC(=O)c1ccccc1	0.0941
CCOC(=O)NCc1cc(-c2nn(C)c(=O)c3ccccc23)ccc1C	-0.837
COc1ccc(C(=O)NN(C)c2nc(-c3ccccc3)cc(C)c2S(C)(=O)=O)cc1	0.745
Cc1ccc(Cl)cc1N1CCN(Cc2cc3c(cc2O)CCC3)CC1	-0.148
O=c1c(-c2ccccc2)coc2c(CN3CCCC3)c(O)ccc12	-1.07
COC(=O)NCC(c1cccnc1)N1CCN(c2ccccc2OC)CC1 (stereo not given)	-0.0564
Cc1cc(NC(=O)c2ccc3c(c2)C(=O)N(Cc2cccnc2)C3=O)no1	-0.479
COc1ccc(Cl)cc1S(=O)(=O)N1CCN(Cc2ccc3c(c2)OCO3)CC1	-0.056
COc1cccc(NC(=O)Cn2cnc3sc(C)c(S(=O)(=O)N4CCCCC4)c3c2=O)c1	-0.22
Cc1cccc(-n2ncc3c(N4CCc5ccccc54)ncnc32)c1	-0.17
CCCCCC(=O)Nc1nc2ccccc2[nH]1	0.0142
COC(=O)CC1C(=O)NCCN1C(=S)Nc1ccccc1 (stereo not given)	-0.493
CCn1c2c(c3ccc(OC)cc31)CCCC2=O	-0.183
CCOc1ccc(-n2ccnc2SCC(=O)NCc2ccc3c(c2)OCO3)cc1	0.0523
N#Cc1nc(-c2ccc(OCc3ccccc3)cc2)oc1NCc1cccnc1	-0.671
COc1ccc2c(c1)OC13CCCCC1C2C(C(=O)c1ccccc1)C(=O)N3 (stereo not given)	-0.256
CCC(=O)N/N=C(\C)CC(=O)Nc1ccc2ccccc2c1	-0.143
CCC1(C)OC(=O)N2CCc3c(C)[nH]c4c(C)ccc(c34)C21C (stereo not given)	-0.262
CCOC(=O)c1cnn2c(C)cc(-c3ccccc3)nc12	2.74
COC(=O)CC1SC(=O)NC1=O (stereo not given)	0.352
NS(=O)(=O)c1ccc(-n2nncc2C23CC4CC(CC(C4)C2)C3)cc1	0.359
COc1cc(NC(=O)c2cccs2)c(OC)cc1NC(=O)CCn1nnc2ccccc21	0.118
CCOC(=O)c1c(NC(=O)C2CCCO2)sc(C(=O)OC(C)(C)C)c1C (stereo not given)	-0.101
COC(=O)c1ccc(NC(=O)C(=O)N2CCN(C(=S)NCCc3ccccc3)CC2)cc1	-0.154
COc1ccc(-c2noc(-c3ccccc3Cl)n2)cc1OC	-0.738
CCN(CC)CCOC(=O)C1(c2ccc(OC)c(OC)c2)CCCC1	0.0243
O=C(Cn1nnc(-c2ccccc2)n1)N/N=C/c1cc([N+](=O)[O-])ccc1O	-0.78
Cc1ccc(C(=O)Nc2ccc(C)c(S(=O)(=O)Nc3ccccc3Cl)c2)s1	-1.64

SMILES	z-score
O=C(Nc1nc2ccccc2s1)c1cc2c(s1)-c1ccccc1OC2	-0.161
Cc1ccccc1C(=O)Nc1cccc(C#N)c1	-0.261
CC(CN1CCCC(C(N)=O)C1)c1ccccc1 (stereo not given)	-0.143
Cc1ccc(S(=O)(=O)N2CCN(S(=O)(=O)c3ccc4c(c3)OCCO4)CC2)cc1	-0.228
C/C(=C\C(=O)c1ccc(C)cc1)NCc1ccc(F)cc1	-0.367
CCN(CC(N)=O)S(=O)(=O)c1ccc(Br)cc1	-0.102
O=C(c1ccco1)N1CCN(Cc2cccnc2)CC1	-0.196
NC(=O)COc1ccc(C2c3c(oc4ccccc4c3=O)C(=O)N2CC2CCCO2)cc1 (stereo not given)	-0.0945
CCn1c(CSc2ncccn2)nnc1SCC(=O)N1c2ccccc2CC1C (stereo not given)	-0.185
CC(=O)Nc1cccc(C(=O)N/N=C/c2ccc(F)cc2)c1	-0.381
CCS(=O)(=O)n1nc(-c2ccccc2)nc1N	0.709
O=C(OCC(=O)N1CCc2ccccc21)C1=COCCO1	0.992
O=C(CSc1nnnn1-c1ccc2c(c1)OCO2)NCc1cccs1	0.848
CCc1nnc(NC(=O)CSc2nnc(-c3cccnc3)n2CCc2ccccc2)s1	0.167
CC(C)CNC(=S)NNC(=O)c1csc2ccccc12	-0.117
CCC(=O)c1ccc(OCC(O)Cn2cnc3ccccc32)cc1 (stereo not given)	-0.947
COC(=O)c1ccc(C(=O)OC)c(-n2c(=O)c3ccccc3c3ccccc3c2=O)c1	0.0668
CC(C)=C(NC(=O)c1ccco1)C(=O)NCCc1nc2ccccc2[nH]1	-0.508
Cc1cccc2cc(CN(Cc3ccc4c(c3)OCO4)Cc3nnnn3C3CCCC3)c(=O)[nH]c12	0.216
O=c1oc2ccccc2c(Nc2cccc(O)c2)c1[N+](=O)[O-]	-0.379
O=C(O)c1ccccc1C(=O)c1cccs1	0.162
O=c1cc(O)n(-c2ccc(F)cc2)c(=S)[nH]1	0.024
S=C(Nc1ccc(Cl)cc1)NC1CCN(Cc2ccccc2)CC1	0.375
Cc1ccc(N2C(=O)SC(N(CC(=O)O)c3cccc(C)c3)C2=O)cc1 (stereo not given)	0.138
CC1(C)CC(=O)C2=C(C1)N(Cc1cccnc1)C(=O)C2(NC(=O)c1cccnc1)C(F)(F)F (stereo not given)	-0.224
COc1ccccc1OCC(O)Cn1c(=N)n(Cc2ccccc2)c2ccccc21 (stereo not given)	0.691
COC(=O)C1=C(CSc2nc3c(cc2C#N)CN(C)CC3)OC(N)=C(C#N)C1c1ccc(F)cc1 (stereo not given)	-0.097
